88 sequences from the supplement of paper PMC11417369 can be followed below.

± gives the standard deviation of the averaged measurements. This is one part of the list.

This assay has as its system PfAP2-LT AP2 domain (GST-tagged). In words: gcPBM binding intensity (ln(normalized median fluorescence intensity)); higher = stronger DNA binding. Put shortly: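 An Agilent 4 × 180k array carrying primer-extended double-stranded 36-bp intergenic genomic probes and negative controls received GST-tagged P. falciparum DNA-binding domains expressed in E. coli, about 25 μg on average, for 1 h. The binding buffer contained 1× PBS, 1% milk, 0.2 mg/ml BSA, 0.5% salmon testes DNA and 0.03% Triton X-100. Binding intensity is the top Masliner-normalised natural-log median intensity across replicate spots of either probe orientation, read after Alexa488 anti-GST antibody staining and a 488 nm scan.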
As to “AAGAAAAAATAAACATGTACATAAATATATATATAT [XGTACX_site304]”, the “gcPBM binding intensity (ln)” value stood at 9.2 ± 0.43.
“TGCTACTTATAAATAGAACACACATAAGTGTATTTG [CACACA_site9253]”: the “gcPBM binding intensity (ln)” value came to 8.79 ± 0.44.
For “AAGAAAAAAAAAAAAAAAAAAAAAAAAAAGGAAAAA [GTGCAC_negctrl_site174]” the value was 8.37 ± 0.54; for “AAAAAAAAAAAAAAAAAAAAAAAAAAATATATATAT [CACACA_negctrl_site271]”, 8.74 ± 0.28; for “TAAGAAAAAAAATAATGTACATATGTATTTGAGAAA [XGTACX_site3569]”, 8.64 ± 0.5.
For the sequence “TATATATATATATATTGTACTAATTGTGCAAATGAG [XGTACX_site682]”, the “gcPBM binding intensity (ln)” value turned out to be 9.06 ± 0.28.
In the case of “ATAAAGCCATACAATACACACATTTGACATGTCCGT [CACACA_site7523]”, the “gcPBM binding intensity (ln)” value amounted to 9.21 ± 0.33.
To “GAAATTTTTAAATACAGTACACACATGGGTTTAAAT [XGTACX_site6124]” belongs 8.88 ± 0.37.
For “ATACTTCAATCTATTTGTACATATTTTTTAAAACCA [XGTACX_site2328]” the value was 8.72 ± 0.51; for “AATAATAAAAAATATACACACATATATAAATAAATA [CACACA_site6164]”, 9.07 ± 0.4; for “ATTTAATACATACATTCACACACACTAATTGTATAT [CACACA_site9361]”, 9.48 ± 0.26.
For “AAAAAAAAAAAAACTTGTACATGTGATATTATCTAT [XGTACX_site6169]” the value was 8.7 ± 0.45; for “TCAAAGTAGGCTTATATGCACACTTTGAAATATTAT [CACACA_site1920]”, 8.7 ± 0.41.
As for “TTAAATGTTCTATATACATGCAATGATATGTTTCTG [TGCATGCA_site317]”, the “gcPBM binding intensity (ln)” value amounted to 8.7 ± 0.39.
Turning to “TAGTTAATATGAAAAAGTACACGTTTCAGTGAAAGT [XGTACX_site7402]”, the “gcPBM binding intensity (ln)” value is 8.86 ± 0.46.
On to “TTTAAAATAAATATTACACACAAAATATTAAAAAGC [CACACA_site2129]”, for which the “gcPBM binding intensity (ln)” value was found to be 8.88 ± 0.44.
For “ATATATACATATGGGTGTACATATGCACATATATAT [XGTACX_site8437]” the value was 9.06 ± 0.37; for “ACAAAAAAAAACGTGGTGCATTAATAATATTGTATA [GTGCAC_site9469]”, 8.86 ± 0.5; for “ATAACACAAAAAGGGGGTACAATAAAAAAAAAAAAA [XGTACX_site1652]”, 8.68 ± 0.54.
To “TATTTATATAGGTATACACACATACAAATATGTAAA [CACACA_site7705]” belongs 8.86 ± 0.46; to “AATACCTATAATACAACACACAAGTAATATAAACCT [CACACA_site7661]”, 9.35 ± 0.39; to “TCATTATATACAATATGTACATATATGTAATAAACA [XGTACX_site4611]”, 8.71 ± 0.4.
To “AGCACACGCAGACACACACACACACGCACACGCACA [CACACA_site6306]” belongs 10.3 ± 0.23; to “AAAGGATATGCTTCATATATATATTGTTATATATGT [CACACA_negctrl_site1672]”, 8.72 ± 0.34.
As to “AAAGAATTCATTATTTGTACTTAAATAAATAAATAA [XGTACX_site5932]”, the “gcPBM binding intensity (ln)” value stood at 8.38 ± 0.38.
Turning to “AGAAAGAAAGAATACACACACACATATATATATATC [CACACA_site3744]”, the “gcPBM binding intensity (ln)” value is 9.95 ± 0.3.
For “AAATTAATATAAATATGTACATAAATAATAAAATAT [XGTACX_site6131]” the value was 8.84 ± 0.54; for “GGAGGTTGTTATAAAAGTACAAAAAGTTGCAATTTT [XGTACX_site7351]”, 8.76 ± 0.57.
To ATTTTTCAAACTTTAGTGCAATGAAAGAAAGAAAAA belongs 8.36 ± 0.46; to “AAGGAATAAAGAAGTTGTACATAATTTGTATCATCC [XGTACX_site3891]”, 8.83 ± 0.48.
Take “GTTTTCCTTCCCTTTCCCCCTCAAAAAAAGGGAACA [TGCATGCA_negctrl_site436]”: the “gcPBM binding intensity (ln)” value was 8.53 ± 0.31.
Consider “TAAAATTTTTTATTCACACAAATATAGTTATATATA [CACACA_site5348]”, for which the “gcPBM binding intensity (ln)” value was 8.38 ± 0.45.
Turning to “ATAAGAAGGAACATAAATATATCATAAAAAAAAAAA [GTGCAC_negctrl_site169]”, the “gcPBM binding intensity (ln)” value was 8.7 ± 0.49.
In the case of “TATATAATATATAAATGTACTTTTGTCTTATATGAA [XGTACX_site7211]”, the “gcPBM binding intensity (ln)” value came to 8.43 ± 0.44.
To “TAGTAACTTGTATTCACACAAATTATATTATATTAC [CACACA_site5041]” belongs 8.73 ± 0.4.
For “ATACTATAATATAAAACACACATATGTACCTTCTAA [CACACA_site7323]” the value was 8.96 ± 0.38; for “ATTATTTAAATTTAACGTACGGAATAAGACATAGAT [XGTACX_site8622]”, 8.96 ± 0.45.
For “TTCAGGTAATAACATTGTACATGTGTATCATAATTA [XGTACX_site6740]” the value was 8.78 ± 0.35.
On to “AATCATTAAAGCATAATGTTTATGATCAATATGAAA [CACACA_negctrl_site887]”, for which the “gcPBM binding intensity (ln)” value is 8.56 ± 0.52.
To “TTTTTTTTTTTTTTTTTTTTACAGAAAAATATTAAA [CACACA_negctrl_site128]” belongs 8 ± 0.33.
In the case of “ATGTGTTTCTTCAATTGTACTAAAAGGTATATATTG [XGTACX_site4608]”, the “gcPBM binding intensity (ln)” value is 8.85 ± 0.35.
For “TTATTCTAAAAATATACACACAACAACAAACAAACA [CACACA_site1543]”, the “gcPBM binding intensity (ln)” value was found to be 9.16 ± 0.3.
On to “TAGATAAAATGAACATGTACTCATCTTAATATATAT [XGTACX_site34]”, for which the “gcPBM binding intensity (ln)” value was determined as 8.68 ± 0.49.
“CAATATGGAAAATAAAGTACGCACACAAAAATTCTC [XGTACX_site4793]”: the “gcPBM binding intensity (ln)” value stood at 9.31 ± 0.34.
For “TACACCCACATATATATACACACTTTTATTTAAATA [CACACA_site1596]” the value was 8.94 ± 0.33; for “AATATATATATATGTGCACACATATATAATATGTAT [CACACA_site716]”, 9.84 ± 0.3.
Consider “AAAAAAAATAATGTTGCACACAACAACAAACAAAAA [CACACA_site3290]”, for which the “gcPBM binding intensity (ln)” value is 9.04 ± 0.59.
For “TTTCATAAATAATAAAATAAAATATGAAGCAAAAGG [CACACA_negctrl_site1767]” the value was 8.61 ± 0.47; for “TAATTTTTTTAAGAGAGTACATGACTCAACAGTTTA [XGTACX_site3103]”, 8.18 ± 0.35.
To “TTTTTTTTTTTTTGGAGTACATGTTTATAACATAAT [XGTACX_site1799]” belongs 8.4 ± 0.48; to “TTATATCCAACTTGAAAAAAGGTATATGTTTATATA [CACACA_negctrl_site1746]”, 8.4 ± 0.44; to “TGCTCTAATTTATATACACACAAATATGTACACATA [CACACA_site7845]”, 9.15 ± 0.34.
For “ACAAACAAATAAATATGTACGAATAAATAAAATTTT [XGTACX_site4664]” the value was 8.82 ± 0.41; for CTTTTAGAATAATCAGTGCAAAAAAAAAAAAAAAAA, 8.42 ± 0.38.
For “TTTTTTTTCAAAAATACAAAAAAAAAAGAAAAAAAC [CACACA_negctrl_site625]”, the “gcPBM binding intensity (ln)” value came to 8.5 ± 0.4.
To “GATAATACATAAATTTATAAGTGGAAGAATAAATAA [CACACA_negctrl_site698]” belongs 8.79 ± 0.49; to “GAAATATTACAAAGTACATGCAACGAAAATTTCAGT [TGCATGCA_site608]”, 8.99 ± 0.26; to “ATTACATTTTTAATGCGTACTAAAAATGTATATAAG [XGTACX_site6384]”, 8.53 ± 0.38.
For “AATATAAAAATGTTTACACACACACCCAAATATATT [CACACA_site2511]” the value was 9.61 ± 0.18; for “AGAATTACTTAAAAAAGTACATAAAATTATTTAAAA [XGTACX_site2205]”, 8.35 ± 0.6; for “AATACACCCAGACACACACACAAAAAAAAAAAAAAA [CACACA_site513]”, 9.53 ± 0.61.
For “TTTGAATCCTTATATACACACATTATGTAATATTAT [CACACA_site561]” the value was 8.96 ± 0.5; for “AAAAGAGAAATGGGCACACACACACCGATTATATAT [CACACA_site4942]”, 9.9 ± 0.42.
Take “ATATATATATTAAATACACACATTTTTGATTAGGTT [CACACA_site3119]”: the “gcPBM binding intensity (ln)” value was 8.97 ± 0.33.
For “TTATTATCTCTTGTCATTATTATATACTAAGAAGTA [CACACA_negctrl_site410]” the value was 8.51 ± 0.52; for “AATATGAAATATATTACACACATTTATATGTTGAAA [CACACA_site1427]”, 8.8 ± 0.41; for “AAAGATTTAGAAAATGAACACACGAGCACCCACCGA [CACACA_site1017]”, 9.43 ± 0.11.
Take “GAAAGAGAGATATATACACACATATTTATATTTTTA [CACACA_site7057]”: the “gcPBM binding intensity (ln)” value amounted to 8.88 ± 0.45.
To “ATATTAAGAATGTATACATGCATATATATATAGTAC [TGCATGCA_site219]” belongs 9.08 ± 0.35; to “TTCGTTAAAAATAAATGTACATAAATAAACCTTATT [XGTACX_site621]”, 8.51 ± 0.44; to “ATTTTAATAAACACTTACATGTTTTCCAAATTGTAT [CACACA_negctrl_site1807]”, 8.77 ± 0.4.
To “TATTAATAAATATGTTTACACACGAAAATACATTTT [CACACA_site1012]” belongs 8.75 ± 0.42.
To “TCTAATTATCACATTGCACACACATTTCCTTTTACA [CACACA_site9140]” belongs 9.63 ± 0.28; to “TAATTAATTTATGTAACACACATTGTTGATTCAATA [CACACA_site1098]”, 8.77 ± 0.4; to “TTATACTGTATAGTCGCACACAAAAATATAAAATAT [CACACA_site3869]”, 9.29 ± 0.36.
For the sequence AAAAGTCTCTTTTTAGTGCACATTTTATTTAAATAT, the “gcPBM binding intensity (ln)” value is 8.7 ± 0.44.
In the case of “CAGATAAGGTGAAGCTGTACAAAAATGTTTTATAAC [XGTACX_site6783]”, the “gcPBM binding intensity (ln)” value is 8.88 ± 0.58.
Turning to “TGTCTTTATATATATTTATTTTTTAGTATTACATAA [CACACA_negctrl_site21]”, the “gcPBM binding intensity (ln)” value was found to be 8.61 ± 0.47.
To “TATCTTTTTTTTAATACACACAAATTTATGAAAGTA [CACACA_site7879]” belongs 8.54 ± 0.37.
“ATTTTCATATTTTTATGTACATATTATAAGAATATA [XGTACX_site3691]”: the “gcPBM binding intensity (ln)” value was 8.61 ± 0.46.
Regarding “ATGGAATATTTCATGATTTTTTTAATTTTTTTATTG [XGTACX_negctrl_site55]”, the “gcPBM binding intensity (ln)” value was 8.57 ± 0.54.
Take “TTTATATCTTATTATAGGAAAATGAATATTTTCTCT [TGCATGCA_negctrl_site478]”: the “gcPBM binding intensity (ln)” value was 8.31 ± 0.56.
For “ACAAAACATATATTCTGTACATATATAATGGTGACT [XGTACX_site6796]” the value was 8.95 ± 0.4; for “AAAAAAGAGGGATACACACAAACATATATATATATA [CACACA_site2243]”, 9.865 ± 0.0071; for “AAGAAAATATAAATATGTACTTAATAATTTATTTAT [XGTACX_site8100]”, 8.4 ± 0.45.
For “AGGATACACGGACACACACACATATATATATATATA [CACACA_site4654]” the value was 10.43 ± 0.078.
Consider “TATTAAAATAACATACGTACATAAGTATATAAAAAA [XGTACX_site1769]”, for which the “gcPBM binding intensity (ln)” value is 8.78 ± 0.42.
As to “TATATTAATTAACAGTGTACAAAAAAAAATAAAAAA [XGTACX_site3702]”, the “gcPBM binding intensity (ln)” value worked out at 8.78 ± 0.63.
